Read-outs that look alike come from different tables or passages of the source.
Columns and labels:
[1] = system: dogs anesthetized with isoflurane; assay: Isoflurane MAC after perzinfotel by IV, SQ, IM routes, with or without butorphanol (Example 3, Latin square crossover); conditions: for Mean MAC during isoflurane anesthesia, 1st MAC: n = 6 dogs
[2] = system: dogs anesthetized with isoflurane; assay: Hemodynamic and respiratory parameters, concurrent with MAC determinations (Example 1); format: in vivo; conditions: for Body Temperature / DAP / ETCO2 / ETO2 / Heart Rate / Respiratory Rate / SAP / Sp02 / MAP: isoflurane-anesthetized dogs
Experimental: Hemodynamic and respiratory parameters were also collected concurrently with MAC determinations. These included body temperature, respiratory rate, median arterial blood pressure (MAP), heart rate, percent saturation of hemoglobin with oxygen, (SpO2), systolic arterial blood pressure (SAP), diastolic arterial blood pressure (DAP), end-tidal [exhaled] oxygen concentration (ETO2), and end-tidal [exhaled] carbon dioxide concentration (ETCO2). […] Hemodynamic and respiratory parameters were measured concurrently with the MAC determinations shown in Table 1, except for conscious dog data.

[3] = system: dogs anesthetized with isoflurane
[4] = system: dogs anesthetized with isoflurane; conditions: for Mean MAC of isoflurane required to maintain anesthesia, 1st: approx 2 hours after perzinfotel; for Mean MAC of isoflurane required to maintain anesthesia, 1st / Mean MAC of isoflurane required to maintain anesthesia, 2nd: n = 6 dogs; for Mean MAC of isoflurane required to maintain anesthesia, 2nd: approx 5 hours after perzinfotel; for Mean MAC of isoflurane required to maintain anesthesia, AVERAGE: average of 1st and 2nd
[5] = Treatment G: butorphanol 0.2 mg/Kg IM for 2nd MAC

**Q.** With `O=c1c2c(c1=O)N(CCP(=O)(O)O)CCCN2` [Perzinfotel, [2-(8,9-dioxo-2,6-diazabicyclo[5.2.0]non-1-(7)-en-2-yl)ethyl]phosphonic acid] as the compound, how does the “MAC change versus CTRL, 1st MAC” value ([1]; Treatment A: 20 mg/Kg IV) read?
**A.** −43%

**Q.** And the “MAC change versus CTRL, 2nd MAC” value ([1]; Treatment A: 20 mg/Kg IV, 2nd MAC)?
**A.** −31%

**Q.** And the “Mean MAC during isoflurane anesthesia, 2nd MAC” value ([1]; Treatment A: 20 mg/Kg IV, 2nd MAC, 2 hours later)?
**A.** 0.83%

**Q.** What about the “MAC change versus CTRL, 1st MAC” value ([1]; Treatment B: 20 mg/Kg SQ) of the same compound?
**A.** −34%

**Q.** And the “Mean MAC during isoflurane anesthesia, 1st MAC” value ([1]; Treatment B: 20 mg/Kg SQ)?
**A.** 0.75%

**Q.** What about the “MAC change versus CTRL, 2nd MAC” value ([1]; Treatment B: 20 mg/Kg SQ, 2nd MAC) of the same compound?
**A.** −35%

**Q.** And the “Mean MAC during isoflurane anesthesia, 2nd MAC” value ([1]; Treatment B: 20 mg/Kg SQ, 2nd MAC, 2 hours later)?
**A.** 0.78%

**Q.** And the “Mean MAC during isoflurane anesthesia, 1st MAC” value ([1]; Treatment C: 20 mg/Kg IM)?
**A.** 0.70%

**Q.** What about the “Mean MAC during isoflurane anesthesia, 2nd MAC” value ([1]; Treatment C: 20 mg/Kg IM, 2nd MAC, 2 hours later) of the same compound?
**A.** 0.75%

**Q.** What about the “MAC change versus CTRL, 1st MAC” value ([1]; Treatment D: 10 mg/Kg IM) of the same compound?
**A.** −34%

**Q.** And the “Mean MAC during isoflurane anesthesia, 1st MAC” value ([1]; Treatment D: 10 mg/Kg IM)?
**A.** 0.75%

**Q.** And the “MAC change versus CTRL, 2nd MAC” value ([1]; Treatment D: 10 mg/Kg IM, 2nd MAC)?
**A.** −33%

**Q.** What about the “Mean MAC during isoflurane anesthesia, 2nd MAC” value ([1]; Treatment D: 10 mg/Kg IM, 2nd MAC, 2 hours later) of the same compound?
**A.** 0.80%

**Q.** And the “MAC change versus CTRL, 2nd MAC” value ([1]; Treatment E: 30 mg/Kg IM, 2nd MAC)?
**A.** −46%

**Q.** And the “Mean MAC during isoflurane anesthesia, 2nd MAC” value ([1]; Treatment E: 30 mg/Kg IM, 2nd MAC, 2 hours later)?
**A.** 0.65%

**Q.** And the “isoflurane MAC” value ([1]; all doses and all routes (IV, IM, SC))?
**A.** substantially decreased

**Q.** And the “all blood pressure parameters (MAP, SAP, and DAP) versus control levels with isoflurane alone” value ([2]; 10 and 20 mg/kg perzinfotel)?
**A.** significantly different from control levels

**Q.** What about the “Body Temperature” value ([2]; IV perzinfotel 5 mg/kg, 1st) of the same compound?
**A.** 37.8 °C

**Q.** What about the DAP ([2]; IV perzinfotel 5 mg/kg, 1st) of the same compound?
**A.** 73 mm Hg

**Q.** And the ETCO2 ([2]; IV perzinfotel 5 mg/kg, 1st)?
**A.** 32 mm Hg

**Q.** What about the ETO2 ([2]; IV perzinfotel 5 mg/kg, 1st) of the same compound?
**A.** 94 mm Hg

**Q.** And the “Heart Rate” value ([2]; IV perzinfotel 5 mg/kg, 1st)?
**A.** 129 beats/min

**Q.** And the “Respiratory Rate” value ([2]; IV perzinfotel 5 mg/kg, 1st)?
**A.** 24 breaths/min

**Q.** And the SAP ([2]; IV perzinfotel 5 mg/kg, 1st)?
**A.** 116 mm Hg

**Q.** And the Sp02 ([2]; IV perzinfotel 5 mg/kg, 1st)?
**A.** 99%

**Q.** And the “Body Temperature” value ([2]; IV perzinfotel 5 mg/kg, 2nd)?
**A.** 37.8 °C

**Q.** And the DAP ([2]; IV perzinfotel 5 mg/kg, 2nd)?
**A.** 69 mm Hg

**Q.** And the ETCO2 ([2]; IV perzinfotel 5 mg/kg, 2nd)?
**A.** 30 mm Hg

**Q.** And the ETO2 ([2]; IV perzinfotel 5 mg/kg, 2nd)?
**A.** 94 mm Hg

**Q.** What about the “Heart Rate” value ([2]; IV perzinfotel 5 mg/kg, 2nd) of the same compound?
**A.** 113 beats/min

**Q.** What about the MAP ([2]; IV perzinfotel 5 mg/kg, 2nd) of the same compound?
**A.** 88 mm Hg

**Q.** What about the “Respiratory Rate” value ([2]; IV perzinfotel 5 mg/kg, 2nd) of the same compound?
**A.** 27 breaths/min

**Q.** What about the SAP ([2]; IV perzinfotel 5 mg/kg, 2nd) of the same compound?
**A.** 114 mm Hg

**Q.** What about the Sp02 ([2]; IV perzinfotel 5 mg/kg, 2nd) of the same compound?
**A.** 100%

**Q.** What about the “Body Temperature” value ([2]; IV perzinfotel 10 mg/kg, 1st) of the same compound?
**A.** 37.9 °C

**Q.** What about the DAP ([2]; IV perzinfotel 10 mg/kg, 1st) of the same compound?
**A.** 82 mm Hg

**Q.** What about the ETCO2 ([2]; IV perzinfotel 10 mg/kg, 1st) of the same compound?
**A.** 37 mm Hg

**Q.** What about the ETO2 ([2]; IV perzinfotel 10 mg/kg, 1st) of the same compound?
**A.** 94 mm Hg

**Q.** What about the “Heart Rate” value ([2]; IV perzinfotel 10 mg/kg, 1st) of the same compound?
**A.** 132 beats/min

**Q.** And the MAP ([2]; IV perzinfotel 10 mg/kg, 1st)?
**A.** 98 mm Hg

**Q.** And the “Respiratory Rate” value ([2]; IV perzinfotel 10 mg/kg, 1st)?
**A.** 26 breaths/min

**Q.** What about the SAP ([2]; IV perzinfotel 10 mg/kg, 1st) of the same compound?
**A.** 126 mm Hg

**Q.** What about the Sp02 ([2]; IV perzinfotel 10 mg/kg, 1st) of the same compound?
**A.** 99%

**Q.** What about the “Body Temperature” value ([2]; IV perzinfotel 10 mg/kg, 2nd) of the same compound?
**A.** 38.0 °C

**Q.** What about the DAP ([2]; IV perzinfotel 10 mg/kg, 2nd) of the same compound?
**A.** 80 mm Hg

**Q.** What about the ETCO2 ([2]; IV perzinfotel 10 mg/kg, 2nd) of the same compound?
**A.** 32 mm Hg

**Q.** And the ETO2 ([2]; IV perzinfotel 10 mg/kg, 2nd)?
**A.** 95 mm Hg

**Q.** And the “Heart Rate” value ([2]; IV perzinfotel 10 mg/kg, 2nd)?
**A.** 140 beats/min

**Q.** What about the MAP ([2]; IV perzinfotel 10 mg/kg, 2nd) of the same compound?
**A.** 96 mm Hg

**Q.** What about the “Respiratory Rate” value ([2]; IV perzinfotel 10 mg/kg, 2nd) of the same compound?
**A.** 34 breaths/min

**Q.** What about the SAP ([2]; IV perzinfotel 10 mg/kg, 2nd) of the same compound?
**A.** 124 mm Hg

**Q.** And the Sp02 ([2]; IV perzinfotel 10 mg/kg, 2nd)?
**A.** 100%

**Q.** And the “Body Temperature” value ([2]; IV perzinfotel 20 mg/kg, 1st)?
**A.** 37.9 °C

**Q.** What about the DAP ([2]; IV perzinfotel 20 mg/kg, 1st) of the same compound?
**A.** 86 mm Hg

**Q.** And the ETCO2 ([2]; IV perzinfotel 20 mg/kg, 1st)?
**A.** 31 mm Hg

**Q.** What about the ETO2 ([2]; IV perzinfotel 20 mg/kg, 1st) of the same compound?
**A.** 95 mm Hg

**Q.** What about the “Heart Rate” value ([2]; IV perzinfotel 20 mg/kg, 1st) of the same compound?
**A.** 134 beats/min

**Q.** And the MAP ([2]; IV perzinfotel 20 mg/kg, 1st)?
**A.** 105 mm Hg

**Q.** What about the “Respiratory Rate” value ([2]; IV perzinfotel 20 mg/kg, 1st) of the same compound?
**A.** 29 breaths/min

**Q.** And the SAP ([2]; IV perzinfotel 20 mg/kg, 1st)?
**A.** 138 mm Hg

**Q.** What about the Sp02 ([2]; IV perzinfotel 20 mg/kg, 1st) of the same compound?
**A.** 99%

**Q.** And the “Body Temperature” value ([2]; IV perzinfotel 20 mg/kg, 2nd)?
**A.** 37.9 °C

**Q.** And the DAP ([2]; IV perzinfotel 20 mg/kg, 2nd)?
**A.** 85 mm Hg

**Q.** And the ETCO2 ([2]; IV perzinfotel 20 mg/kg, 2nd)?
**A.** 30 mm Hg

**Q.** And the ETO2 ([2]; IV perzinfotel 20 mg/kg, 2nd)?
**A.** 94 mm Hg

**Q.** What about the “Heart Rate” value ([2]; IV perzinfotel 20 mg/kg, 2nd) of the same compound?
**A.** 141 beats/min

**Q.** What about the MAP ([2]; IV perzinfotel 20 mg/kg, 2nd) of the same compound?
**A.** 106 mm Hg

**Q.** And the “Respiratory Rate” value ([2]; IV perzinfotel 20 mg/kg, 2nd)?
**A.** 16 breaths/min

**Q.** What about the SAP ([2]; IV perzinfotel 20 mg/kg, 2nd) of the same compound?
**A.** 139 mm Hg

**Q.** And the Sp02 ([2]; IV perzinfotel 20 mg/kg, 2nd)?
**A.** 99%

**Q.** And the BIS ([3]; all doses and routes of administration (Example 3))?
**A.** increased

**Q.** And the “amount of cardiopulmonary depression produced by the isoflurane anesthesia” value ([3]; dog, in vivo)?
**A.** decreased

**Q.** And the “Mean MAC of isoflurane required to maintain anesthesia, 1st” value (“Mean MAC of isoflurane required … 1st” below) ([4]; IV 5 mg/kg perzinfotel)?
**A.** 1.03%

**Q.** What about the “Mean MAC of isoflurane required to maintain anesthesia, 2nd” value (“Mean MAC of isoflurane required … 2nd” for short) ([4]; IV 5 mg/kg perzinfotel) of the same compound?
**A.** 0.99%

**Q.** And the “Mean MAC of isoflurane required to maintain anesthesia, AVERAGE” value (from here on “Mean MAC of isoflurane required … AVERAGE”) ([4]; IV 5 mg/kg perzinfotel)?
**A.** 1.01%

**Q.** What about the “Mean MAC of isoflurane required … 1st” value ([4]; IV 10 mg/kg perzinfotel) of the same compound?
**A.** 0.93%

**Q.** And the “Mean MAC of isoflurane required … 2nd” value ([4]; IV 10 mg/kg perzinfotel)?
**A.** 0.93%

**Q.** What about the “Mean MAC of isoflurane required … AVERAGE” value ([4]; IV 10 mg/kg perzinfotel) of the same compound?
**A.** 0.93%

**Q.** What about the “Mean MAC of isoflurane required … 1st” value ([4]; IV 20 mg/kg perzinfotel) of the same compound?
**A.** 0.72%

**Q.** What about the “Mean MAC of isoflurane required … 2nd” value ([4]; IV 20 mg/kg perzinfotel) of the same compound?
**A.** 0.70%

**Q.** What about the “Mean MAC of isoflurane required … AVERAGE” value ([4]; IV 20 mg/kg perzinfotel) of the same compound?
**A.** 0.71%

**Q.** And the “duration for which effects of a single dose on MAC were sustained” value ([4]; single IV bolus, longest interval between dosing and second MAC determination)?
**A.** at least 5 hours

**Q.** Which “MAC change versus CTRL, 2nd MAC” value [1, 5] does the source give for `Oc1ccc2c(c1)[C@@]13CCCC[C@@]1(O)[C@@H](C2)N(CC1CCC1)CC3` [BUTORPHANOL, reference compound] here?
**A.** −19%

**Q.** What about the “Mean MAC during isoflurane anesthesia, 2nd MAC” value [1, 5] of the same compound?
**A.** 0.97%

— patent publication US20090061024A1, “COMPOSITIONS AND METHODS EMPLOYING NMDA ANTAGONISTS FOR ACHIEVING AN ANESTHETIC-SPARING EFFECT” (Wyeth, priority 2007, published 2009)
